According to the RNAGym collection of RNA variant scans (doi:10.7554/elife.90254):
Read counts are not given, so values of variants with three or more changes are uncertain.

B1: LINE1-mini (parent)
chain: GGCAGAGCUCAACACAGCGUGGCAAAGUGGCUGUGGCUAGACUGCC

Variants of: B1
Assay: self-cleavage, relative activity (ratio to wild type); higher = more cleavage; in vitro, sequencing; the parent is a self-cleaving ribozyme

| Variant | self-cleavage |
| --- | --- |
| A14C C18G C23A G27A G33A U38A | 0.16 |
| A14C C18U G36U | 0.11 |
| A14C C23A C42G | 0.19 |
| A14C C31G A41U | 0.02 |
| A14C C31G G36A U38C A39G | 0.03 |
| A14C C31U G33C | 0.03 |
| A14C C37U C42U | 0.18 |
| A14C C42U C45U | 0.09 |
| A14C G17C A24U U28A A39U | 0.02 |
| A14C G17C C31A C42A | 0.03 |
| A14C G17U C23U | 0.21 |
| A14C G17U G19A C37U | 0.03 |
| A14C G17U G19C A26C C46G | 0.1 |
| A14C G17U G22C | 0.04 |
| A14C G19C G36U U43A | 0.04 |
| A14C G19C U34G | 0.57 |
| A14C G19U G36A | 0.05 |
| A14C G21A C46G | 0.09 |
| A14C G21C C31G | 0.01 |
| A14C G21U C31U | 0.01 |
| A14C G21U G22U | 0.13 |
| A14C G22A G27C A39U | 0.02 |
| A14C G22A G27U U34G G36A A39C | 0 |
| A14C G22A G40C | 0.01 |

| Variant | self-cleavage |
| --- | --- |
| A14C G22C C46A | 0.03 |
| A14C G22C U28G | 0.07 |
| A14C G27A C37U | 0.02 |
| A14C G27A U38G | 0.06 |
| A14C G27U G40C | 0 |
| A14C G30U U32C | 0.14 |
| A14C G33C G35U C42A | 0.01 |
| A14C G33U A39U | 0.02 |
| A14C G35U C37G C42G G44A | 0.08 |
| A14C G35U G44U | 0.07 |
| A14C G36A G44A C46A | 0.03 |
| A14C G36C C42U | 0.02 |
| A14C U20C C31U A39C | 0 |
| A14C U20C G27A | 0.11 |
| A14C U20C U28G U43A | 0 |
| A14C U20C U34A G35A | 0.04 |
| A14C U32A C46A | 0.03 |
| A14C U32A G40A | 0.01 |
| A14C U34G U38G | 0 |
| A14G A16C C18G G22A | 0.09 |
| A14G A16C U20C G40C | 0.01 |
| A14G A16G A41G | 0 |
| A14G A16U A25U C37U A41U G44C | 0.02 |
| A14G A16U U28A A39G | 0.01 |

| Variant | self-cleavage |
| --- | --- |
| A14G A24C A39C | 0.04 |
| A14G A24G C37U | 0.05 |
| A14G A24G C42G | 0 |
| A14G A24G G29U | 0.24 |
| A14G A24G G33A U34C G40U | 0.14 |
| A14G A24G G33U C45U | 0.07 |
| A14G A24U C46U | 0.38 |
| A14G A25C C37U | 0.02 |
| A14G A25C G40U | 0.18 |
| A14G A25C U28C G30U | 0.14 |
| A14G A25C U43G | 0 |
| A14G C15A A26G G27A U34G | 0.38 |
| A14G C15A C23A G40C | 0.02 |
| A14G C15G C23G U28G A41C | 0.1 |
| A14G C15G G17A | 0.05 |
| A14G C15G U34A A39C G40A | 0 |
| A14G C15U C18G | 0.07 |
| A14G C15U G17A G22U U38G | 0 |
| A14G C15U G17C U28G | 0.03 |
| A14G C15U G19C G27A | 0.34 |
| A14G C15U U20C G21C A25C A26G | 0.1 |
| A14G C18A G27U C37A | 0.03 |
| A14G C18G G22A U32G U34G C45G | 0.01 |
| A14G C18U A24G G30C U38G C46U | 0.02 |

| Variant | self-cleavage |
| --- | --- |
| A14G C18U A26U | 0.01 |
| A14G C18U G27A U28C | 0.03 |
| A14G C23U G29C C31A | 0.07 |
| A14G C31U A41G G44A | 0.04 |
| A14G C31U A41U | 0.03 |
| A14G C37A A41U | 0.08 |
| A14G C42G C46A | 0.03 |
| A14G G17A C37A A39U | 0.02 |
| A14G G17C C18A | 0.04 |
| A14G G17C C31A G35U A39C | 0 |
| A14G G17C G30A C42G | 0.12 |
| A14G G17U G21U C31U | 0.01 |
| A14G G17U U20G G21U G40C C46A | 0.05 |
| A14G G19A C31A G44A | 0.1 |
| A14G G19A G29C | 0.39 |
| A14G G19A U28G G33A C42G | 0.03 |
| A14G G19C A24C U38A | 0.09 |
| A14G G19U A24C | 0.04 |
| A14G G19U U20C | 0.28 |
| A14G G21A U28G C37U | 0.01 |
| A14G G21C U43A | 0.11 |
| A14G G21U A24G | 0.24 |
| A14G G21U C46G | 0.91 |
| A14G G21U U28A G30U U32A C46G | 0.01 |

| Variant | self-cleavage |
| --- | --- |
| A14G G22A G27U | 0.38 |
| A14G G22A U32G U38A C42A | 0.02 |
| A14G G22U C37U G44U | 0.04 |
| A14G G27C C31A | 0.13 |
| A14G G27U U28C C37A | 0.07 |
| A14G G29A G33U | 0.05 |
| A14G G29U C42U | 0.09 |
| A14G G29U G33A | 0.06 |
| A14G G29U G35U C37U U38G C45A | 0 |
| A14G G30U G36A | 0 |
| A14G G30U U38C | 0.1 |
| A14G G33U C46G | 0.02 |
| A14G G35A C45A | 0.08 |
| A14G G35U G36C | 0.02 |
| A14G G36C C42G | 0.01 |
| A14G U20A U38A G40A | 0.03 |
| A14G U20C C23G | 0.34 |
| A14G U28A G44A C45U | 0.08 |
| A14G U28C G35C | 0.05 |
| A14G U32C U34A U38C | 0.03 |
| A14G U34C C37G | 0.01 |
| A14G U38C C45A | 0.27 |
| A14G U38G A39C | 0.07 |
| A14U A16C C18G G22U C46A | 0.08 |

| Variant | self-cleavage |
| --- | --- |
| A14U A16C C18U | 0.22 |
| A14U A16C C46G | 0.11 |
| A14U A16C G19U A24G G36U | 0.01 |
| A14U A16C G19U U32C G35A | 0.02 |
| A14U A16G C18G A25C G44U | 0.02 |
| A14U A16U G19A G21A | 0.11 |
| A14U A24G C45A | 0.06 |
| A14U A26C C42A | 0.03 |
| A14U A26C G30U | 0.2 |
| A14U A26C G33C | 0.02 |
| A14U A26C U38G U43A | 0.09 |
| A14U A26G C37A | 0.05 |
| A14U A26U C37U U38G | 0.04 |
| A14U C15A A26G G44A | 0.02 |
| A14U C15A C46G | 0.15 |
| A14U C15A U20C G27A G29U G33U | 0.09 |
| A14U C15G A16C C31U | 0.01 |
| A14U C15G A16G | 0.01 |
| A14U C18G A26G | 0.14 |
| A14U C18G G21A | 0.08 |
| A14U C18G G35U | 0.03 |
| A14U C18G U20A | 0.1 |
| A14U C18G U20C G21C G29A | 0.06 |
| A14U C23A A24C | 0.89 |

| Variant | self-cleavage |
| --- | --- |
| A14U C23A G40A | 0.08 |
| A14U C23G C31G | 0.01 |
| A14U C23G G35A | 0.07 |
| A14U C23G U32G G44C | 0.04 |
| A14U C23U A41C C42U | 0.23 |
| A14U C23U U38G C46G | 0.03 |
| A14U C31A G36A | 0.1 |
| A14U C31U A39U | 0.03 |
| A14U C31U C46G | 0.02 |
| A14U C37G A41C | 0.03 |
| A14U C37G G40U A41C C42U C45A | 0.09 |
| A14U G17A U32G C45A | 0.05 |
| A14U G17U G19U | 0.08 |
| A14U G17U G33U A41G | 0.17 |
| A14U G19C A25C G27A | 0.1 |
| A14U G19C G35U | 0.92 |
| A14U G19C G36U | 0.02 |
| A14U G19U G36U A39U | 0.22 |
| A14U G21A G30A G40C U43G | 0.01 |
| A14U G21U C23A G35A | 0.11 |
| A14U G21U C23G | 0.94 |
| A14U G21U C45G | 0.06 |
| A14U G22A A25U U32G G44C | 0.04 |
